# The other results are listed elsewhere or left out.
# B1: ECA (Erythrina cristagalli), P83410 (protein)
# chain: VETISFSFSEFEPGNDNLTLQGAALITQSGVLQLTKINQNGMPAWDSTGRTLYTKPVHMWDSTTGTVASFETRFSFSIEQPYTRPLPADGLVFFMGPTKSKPAQGYGYLGVFNNSKQDNSYQTLAVEFDTFSNPWDPPQVPHIGIDVNSIRSIKTQPFQLDNGQVANVVIKYDAPSKILHVVLVYPSSGAIYTIAEIVDVKQVLPDWVDVGLSGATGAQRDAAETHDVYSWSFQASLPE
# Tests used:
# Test in all cases: glycan array binding signal (z-score within array); higher = stronger binding
# Conditions in all cases: glycan notation: IUPAC condensed, linker removed
# [1] = biological target: Gal(b1-4)GlcNAc(b1-3)Gal(b1-4)GlcNAc(b1-3)Gal(b1-4)GlcNAc
# In short: (§1)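 Glycan array data were curated from 3228 arrays in the Consortium for Functional Glycomics database and kept only where the protein sequence was available. Glycan names were converted to IUPAC-condensed notation, and columns mapping to the same glycan were averaged. The binding signal is a within-array Z-score, averaged across arrays of the same protein sequence at different concentrations or buffers and across linkers. Negative Z-scores can be read as non-binding.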
# [2] = biological target: Gal(b1-4)GlcNAc(b1-3)Gal(b1-4)GlcNAc(b1-3)Gal(b1-4)GlcNAc(b1-2)Man(a1-3)[Gal(b1-4)GlcNAc(b1-3)Gal(b1-4)GlcNAc(b1-3)Gal(b1-4)GlcNAc(b1-2)Man(a1-6)]Man(b1-4)GlcNAc(b1-4)GlcNAc
# In short: as §1
# [3] = biological target: Gal(b1-4)GlcNAc(b1-3)Gal(b1-4)GlcNAc(b1-3)Gal(b1-4)GlcNAc(b1-2)Man(a1-3)[Gal(b1-4)GlcNAc(b1-3)Gal(b1-4)GlcNAc(b1-3)Gal(b1-4)GlcNAc(b1-2)Man(a1-6)]Man(b1-4)GlcNAc(b1-4)[Fuc(a1-6)]GlcNAc
# In short: as §1
# [4] = biological target: Gal(b1-4)GlcNAc(b1-3)Gal(b1-4)GlcNAc(b1-3)Gal(b1-4)GlcNAc(b1-2)[Gal(b1-4)GlcNAc(b1-3)Gal(b1-4)GlcNAc(b1-3)Gal(b1-4)GlcNAc(b1-6)]Man(a1-6)[Gal(b1-4)GlcNAc(b1-3)Gal(b1-4)GlcNAc(b1-3)Gal(b1-4)GlcNAc(b1-2)Man(a1-3)]Man(b1-4)GlcNAc(b1-4)[Fuc(a1-6)]GlcNAc
# In short: as §1
# [5] = biological target: Gal(b1-4)GlcNAc(b1-3)Gal(b1-4)GlcNAc(b1-3)Gal(b1-4)GlcNAc(b1-3)Gal(b1-4)GlcNAc(b1-2)Man(a1-3)[Gal(b1-4)GlcNAc(b1-3)Gal(b1-4)GlcNAc(b1-3)Gal(b1-4)GlcNAc(b1-3)Gal(b1-4)GlcNAc(b1-2)Man(a1-6)]Man(b1-4)GlcNAc(b1-4)GlcNAc
# In short: as §1
# [6] = biological target: Gal(b1-4)GlcNAc(b1-3)Gal(b1-4)GlcNAc(b1-3)Gal(b1-4)GlcNAc(b1-3)Gal(b1-4)GlcNAc(b1-2)Man(a1-3)[Gal(b1-4)GlcNAc(b1-3)Gal(b1-4)GlcNAc(b1-3)Gal(b1-4)GlcNAc(b1-3)Gal(b1-4)GlcNAc(b1-2)Man(a1-6)]Man(b1-4)GlcNAc(b1-4)[Fuc(a1-6)]GlcNAc
# In short: as §1
# [7] = biological target: Gal(b1-4)GlcNAc(b1-3)Gal(b1-4)GlcNAc(b1-3)Gal(b1-4)GlcNAc(b1-3)Gal(b1-4)GlcNAc(b1-2)[Gal(b1-4)GlcNAc(b1-3)Gal(b1-4)GlcNAc(b1-3)Gal(b1-4)GlcNAc(b1-3)Gal(b1-4)GlcNAc(b1-6)]Man(a1-6)[Gal(b1-4)GlcNAc(b1-3)Gal(b1-4)GlcNAc(b1-3)Gal(b1-4)GlcNAc(b1-3)Gal(b1-4)GlcNAc(b1-2)Man(a1-3)]Man(b1-4)GlcNAc(b1-4)[Fuc(a1-6)]GlcNAc
# In short: as §1
# [8] = biological target: Gal(b1-4)GlcNAc(b1-3)Gal(b1-4)GlcNAc(b1-3)Gal(b1-4)GlcNAc(b1-3)Gal(b1-4)GlcNAc(b1-3)Gal(b1-4)GlcNAc(b1-2)Man(a1-3)[Gal(b1-4)GlcNAc(b1-3)Gal(b1-4)GlcNAc(b1-3)Gal(b1-4)GlcNAc(b1-3)Gal(b1-4)GlcNAc(b1-3)Gal(b1-4)GlcNAc(b1-2)Man(a1-6)]Man(b1-4)GlcNAc(b1-4)GlcNAc
# In short: as §1
# [9] = biological target: Gal(b1-4)GlcNAc(b1-3)Gal(b1-4)GlcNAc(b1-3)Gal(b1-4)GlcNAc(b1-3)Gal(b1-4)GlcNAc(b1-3)Gal(b1-4)GlcNAc(b1-2)Man(a1-3)[Gal(b1-4)GlcNAc(b1-3)Gal(b1-4)GlcNAc(b1-3)Gal(b1-4)GlcNAc(b1-3)Gal(b1-4)GlcNAc(b1-3)Gal(b1-4)GlcNAc(b1-2)Man(a1-6)]Man(b1-4)GlcNAc(b1-4)[Fuc(a1-6)]GlcNAc
# In short: as §1
# [10] = biological target: Gal(b1-4)GlcNAc(b1-3)Gal(b1-4)GlcNAc(b1-3)Gal(b1-4)GlcNAc(b1-3)Gal(b1-4)GlcNAc(b1-3)Gal(b1-4)GlcNAc(b1-2)[Gal(b1-4)GlcNAc(b1-3)Gal(b1-4)GlcNAc(b1-3)Gal(b1-4)GlcNAc(b1-3)Gal(b1-4)GlcNAc(b1-3)Gal(b1-4)GlcNAc(b1-6)]Man(a1-6)[Gal(b1-4)GlcNAc(b1-3)Gal(b1-4)GlcNAc(b1-3)Gal(b1-4)GlcNAc(b1-3)Gal(b1-4)GlcNAc(b1-3)Gal(b1-4)GlcNAc(b1-2)Man(a1-3)]Man(b1-4)GlcNAc(b1-4)[Fuc(a1-6)]GlcNAc
# In short: as §1
# [11] = biological target: Gal(b1-4)GlcNAc(b1-3)Gal(b1-4)GlcNAc(b1-3)Gal(b1-4)GlcNAc(b1-3)Gal(b1-4)GlcNAc(b1-3)Gal(b1-4)GlcNAc(b1-3)Gal(b1-4)GlcNAc(b1-2)Man(a1-3)[Gal(b1-4)GlcNAc(b1-3)Gal(b1-4)GlcNAc(b1-3)Gal(b1-4)GlcNAc(b1-3)Gal(b1-4)GlcNAc(b1-3)Gal(b1-4)GlcNAc(b1-3)Gal(b1-4)GlcNAc(b1-2)Man(a1-6)]Man(b1-4)GlcNAc(b1-4)GlcNAc
# In short: as §1
# [12] = biological target: Gal(b1-4)GlcNAc(b1-3)Gal(b1-4)GlcNAc(b1-3)GalNAc
# In short: as §1
# [13] = biological target: Gal(b1-4)GlcNAc(b1-3)Gal(b1-4)GlcNAc(b1-3)[Gal(b1-4)GlcNAc(b1-3)Gal(b1-4)GlcNAc(b1-6)]GalNAc
# In short: as §1
# [14] = biological target: Gal(b1-4)GlcNAc(b1-3)Gal(b1-4)GlcNAc(b1-6)[Gal(b1-3)]GalNAc
# In short: as §1
# [15] = biological target: Gal(b1-4)GlcNAc(b1-3)Gal(b1-4)[Fuc(a1-3)]GlcNAc(b1-3)Gal(b1-4)[Fuc(a1-3)]GlcNAc
# In short: as §1
# [16] = biological target: Gal(b1-4)GlcNAc(b1-3)GalNAc
# In short: as §1
# [17] = biological target: Gal(b1-4)GlcNAc(b1-3)[Fuc(a1-3)GlcNAc(b1-6)]Gal(b1-4)Glc
# In short: as §1
# [18] = biological target: Gal(b1-4)GlcNAc(b1-3)[Gal(b1-4)GlcNAc(b1-6)]Gal(b1-4)GlcNAc
# In short: as §1
# [19] = biological target: Gal(b1-4)GlcNAc(b1-3)[Gal(b1-4)GlcNAc(b1-6)]GalNAc
# In short: as §1
# [20] = biological target: Gal(b1-4)GlcNAc(b1-3)[GlcNAc(b1-6)]Gal(b1-4)GlcNAc
# In short: as §1
# [21] = biological target: Gal(b1-4)GlcNAc(b1-6)Gal(b1-4)GlcNAc
# In short: as §1
# [22] = biological target: Gal(b1-4)GlcNAc(b1-6)Gal(b1-4)GlcNAc(b1-6)GalNAc
# In short: as §1
# [23] = biological target: Gal(b1-4)GlcNAc(b1-6)GalNAc
# In short: as §1
binder,measurement,setting,value
B1,glycan array binding signal (z-score),[1],0.952
same,glycan array binding signal (z-score),[2],4.58
same,glycan array binding signal (z-score),[3],0.523
same,glycan array binding signal (z-score),[4],1.81
same,glycan array binding signal (z-score),[5],2.22
same,glycan array binding signal (z-score),[6],0.87
same,glycan array binding signal (z-score),[7],0.893
same,glycan array binding signal (z-score),[8],0.388
same,glycan array binding signal (z-score),[9],0.209
same,glycan array binding signal (z-score),[10],2.44
same,glycan array binding signal (z-score),[11],0.267
same,glycan array binding signal (z-score),[12],2.11
same,glycan array binding signal (z-score),[13],4.2
same,glycan array binding signal (z-score),[14],4.88
same,glycan array binding signal (z-score),[15],1.88
same,glycan array binding signal (z-score),[16],0.923
same,glycan array binding signal (z-score),[17],-0.179
same,glycan array binding signal (z-score),[18],-0.382
same,glycan array binding signal (z-score),[19],5.59
same,glycan array binding signal (z-score),[20],-0.141
same,glycan array binding signal (z-score),[21],-0.152
same,glycan array binding signal (z-score),[22],5.39
same,glycan array binding signal (z-score),[23],0.935

# Reference: the supplement of paper PMC8728848
